Test results as given in PubChem BioAssay AID1347120 (National Center for Advancing Translational Sciences (NCATS), 2019).
Hit rate of the full screen: of about 390,000 compounds, about 930 (0.24%) were called active. This list was built around the results that the source calls inconclusive (neither active nor inactive); the mix of calls is not that of the screen. Calls follow the shape of the dose curve; as a rule, active = well fitted activation curve with a large enough effect; inconclusive = small, poorly fitted or top-dose-only effect; inactive = no such curve, though single readings can be large or run the other way. Where the call is inconclusive, the potency comes from a doubtful curve fit.

test: qHTS for Suppressors of FUS Proteinopathy: Primary screen using FUS-linked yeast assay; also: nearly all actives have a fitted effect of over 55% in size;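 as to growth rescue (activation): plate controls were DMSO vehicle for no effect and reference control for full effect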; details: S. cerevisiae FUS-expressing, OD600, 24 h; Potency: growth rescue; growth rescue (activation): at 76.6 µM (top of the series)
How it was run: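 FUS-expressing yeast, raffinose-pregrown, induced in 2% galactose minimal medium at OD 0.005; compounds in a dilution series, 24hr at 30C. Growth restoration read as absorbance at 600 nm. CP55940 positive control, DMSO negative.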
Potency is read from the fitted curve at half-maximal effect; tags tell the direction and shape of the fitted curve.

| SMILES | growth rescue (activation) | Potency |
| --- | --- | --- |
| O=C(CSc1nccn1Cc1ccc(Cl)cc1)NCc1ccccc1 | inactive: 17.8% |  |
| CCOC(=O)c1ccc(N2C(=O)c3n[nH]c(-c4ccco4)c3C2c2ccc(F)cc2)cc1 (configuration not stated) |  | inconclusive: 31.6 µM [activator, single point] |
| COC(=O)CN(Cc1cn(Cc2ccccc2)nn1)S(=O)(=O)c1ccccc1Br | inactive: 26% |  |
| Cc1nc(C(=O)Nc2cccc(Cl)c2)nn1-c1cc(OC(C)C)c(Cl)cc1Cl |  | active: 31.6 µM |
| CCn1cc(C(=O)O)c(=O)c2cc(F)c(N3CCN(C(=S)NC(=O)c4ccc(F)cc4)CC3)cc21 |  | inconclusive: 5.01 µM [activator, partial curve, poor fit] |
| CCOC(=O)/C=C1\CN(Cc2ccc(OC)cc2)S(=O)(=O)c2ccccc21 |  | inconclusive: 50.1 µM [activator, single point] |
| COc1ccc(C2C3=C(N=C4SCC(=O)N42)c2ccccc2CC3)cc1OC (configuration not stated) |  | active: 35.5 µM |
| Cc1ccc(CNC(=O)CO/N=C/c2ccc3c(c2)OCO3)cc1 | inactive: 21.6% |  |
| O=S(=O)(O)c1cc(O)c2ccc(Nc3ccccc3)cc2c1 |  | inconclusive: 14.1 µM [activator, partial curve] |
| COC(=O)CCCC1=CC2=CC(=O)C(C)(OC(=O)c3cccs3)C(=O)C2=CN1c1cccc(C#N)c1 (configuration not stated) |  | inconclusive: 25.1 µM [activator, partial curve] |
| CN=C1NN=C(c2cc(C)n(-c3c(C)n(C)n(-c4ccccc4)c3=O)c2C)CS1 |  | inconclusive: 31.6 µM [activator, single point] |
| COC(=O)C1=C(c2ccccc2)c2ccccc2S(=O)(=O)N1CC(=O)Nc1ccc(OC)cc1OC |  | inconclusive: 25.1 µM [activator, partial curve, poor fit] |
| COc1cc(OC)c2c(-c3cccc(-c4ccc(F)c(Cl)c4)c3)cc(=O)oc2c1 |  | inconclusive: 50.1 µM [activator, single point] |
| CCOc1ccc(Nc2nc(C)c(NC(=O)c3cccc(OC)c3)c(Nc3ccc(OCC)cc3)n2)cc1 |  | inconclusive: 31.6 µM [activator, single point] |
| CCCC1(C(=O)OCC)NC(c2ccc(OC)cc2OC)C2C(=O)N(c3ccccc3)C(=O)C21 (configuration not stated) |  | inconclusive: 11.2 µM [activator, partial curve] |
| CCc1nc2ccc(C(=O)Nc3ccc4c(c3)OCC(=O)N4)cn2c1N(CC)Cc1cccc(Br)c1 |  | inconclusive: 35.5 µM [activator, partial curve, poor fit] |
| Cn1c(=O)[nH]c(=O)c2c1nc1n2CCN1c1ccccc1 |  | inconclusive: 35.5 µM [activator, single point] |
| O=C(NCCCN1CCc2ccccc2C1)Nc1ccc(Cl)cc1 |  | inconclusive: 11.2 µM [activator, single point] |
| COc1ccc(S(=O)(=O)N2CCOCC2)cc1C(=O)N(C)CCOc1ccc(Cl)cc1 |  | inconclusive: 15.8 µM [activator, partial curve, poor fit] |
| COc1cccc([C@@H]2CC=C(C(=O)O)[C@H](c3ccc(F)cc3)N2S(=O)(=O)c2ccc(C)cc2)c1 |  | inconclusive: 28.2 µM [activator, partial curve, poor fit] |
| CC(C)CN(CCCNC(=O)CN1N=C(c2ccccc2)CCC1=O)CC(C)C | inactive: -3.45% |  |

| SMILES | growth rescue (activation) | Potency |
| --- | --- | --- |
| COC(=O)CNC(=O)C1Nc2ccccc2C2C=CCC12 (configuration not stated) |  | inconclusive: 28.2 µM [activator, partial curve, poor fit] |
| CSc1ccc(S(=O)(=O)Nc2ccc3c4c(cccc24)CC3)cc1 | inactive: 25.5% |  |
| COc1cc(NC(=O)C(C)C)ccc1NC(=O)c1cc2ccccc2o1 | inactive: -11.8% |  |
| COc1ccc(OC)c(S(=O)(=O)N2CCN(c3c(C)cccc3C)CC2)c1 |  | inconclusive: 44.7 µM [activator, single point] |
| NC(Cc1ccc(F)cc1)c1csc(Nc2cc(NCc3ccco3)ncn2)n1 (configuration not stated) |  | inconclusive: 31.6 µM [activator, single point] |
| Cc1c(Br)c([N+](=O)[O-])nn1CC(=O)c1ccccc1 | inactive: -1.47% |  |
| Nc1[nH]c(C(=O)c2ccccc2)c(-c2cccnc2)c1C(=O)NCCc1c[nH]c2ccccc12 | inactive: 12.9% |  |
| CCn1c(SCC(=O)Nc2nccs2)nnc1-c1ccc(S(=O)(=O)N2CCCCCC2)cc1 | inactive: 26.6% |  |
| Cc1ccccc1NC(=S)N/N=C1\CC(C)(C)Oc2ccc(O)cc21 |  | inconclusive: 7.08 µM [activator, full curve, poor fit] |
| O=S(=O)(NCc1ccccc1Cl)c1ccc(N2CCCCS2(=O)=O)cc1 |  | inconclusive: 17.8 µM [activator, single point] |
| CCOC(=O)c1ccc(NC(=S)NC(=O)C2CCCC2)cc1 | inactive: -18.9% |  |
| Cc1cccn2c(=O)c3cc(C(=O)N(Cc4ccccc4)C(C)C)sc3nc12 |  | inconclusive: 39.8 µM [activator, single point] |
| CCCCN(C)CCNC(=O)c1ccc2c(c1)NC(=O)CN2 | inactive: -21.7% |  |
| CC1CCN(S(=O)(=O)c2cn(CC(=O)N3CCN(c4cccc(C(F)(F)F)c4)CC3)cn2)CC1 |  | inconclusive: 14.1 µM [activator, partial curve] |
| COc1ccc(NS(=O)(=O)c2cc(NC(=O)C3CC3)ccc2N2CCCCC2)cc1 |  | inconclusive: 15.8 µM [activator, partial curve, poor fit] |
| O=C(NC1CCc2ccccc21)c1cc(-c2ccc(Cl)cc2)nc2ccccc12 (configuration not stated) | inactive: 2.21% |  |
| CCCNC(=O)C1(C)CCCN(C(=O)c2cc3ccccc3s2)C1 (configuration not stated) | inactive: -1.33% |  |
| Cc1cc(C)nc(SCC(=O)c2ccc(C)c(C)c2)n1 | inactive: -5.78% |  |
| CCN1C(=O)[C@H]2[C@@H](c3ccc(C)cc3)N3C(=O)N(c4ccc(C(F)(F)F)cc4)C(=O)[C@@]3(CC(C)C)[C@H]2C1=O |  | inconclusive: 28.2 µM [activator, single point] |
| COc1ccc(OC)c(S(=O)(=O)N2CC=C(c3c(C)n(CC(=O)N4CCCC4)c4ccccc34)CC2)c1 |  | inconclusive: 50.1 µM [activator, single point] |
| Cc1noc(NS(=O)(=O)c2ccc(NC(=O)c3cc(S(=O)(=O)N(C)c4ccccc4)ccc3Cl)cc2)c1C |  | inconclusive: 15.8 µM [activator, partial curve] |
